Source: PubChem BioAssay AID1345082 (National Center for Advancing Translational Sciences (NCATS), 2018)
The whole screen tested about 94,000 compounds, of which about 4,000 (4.3%) were called active. This list was built around the results that the source calls inconclusive (neither active nor inactive); the mix of calls is not that of the screen. Calls follow the shape of the dose curve; as a rule, active = well fitted inhibition curve with a large enough effect; inconclusive = small, poorly fitted or top-dose-only effect; inactive = no such curve, though single readings can be large or run the other way. A potency beside an inconclusive call is a rough fit, not a confirmed value.

Experiment: Cytotoxic Profiling in NIH 3T3 Cell Line of Diverse Libraries Using Quantitative High-Throughput Screening; also: nearly all actives have a fitted effect of over 55% in size
Details: NIH 3T3 viability, CellTiter-Glo ATP luminescence, 48-72 h; series mostly up to 96.7 µM
Procedure, shortened: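 Cells were seeded at 400 per well, treated with pin-transferred compound, and kept 48 or 72 hr at 37 °C before CellTiter-Glo addition and luminescence imaging of cellular ATP.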
Potency is read from the fitted curve at half-maximal effect; tags tell the direction and shape of the fitted curve.

Row | Compound | Potency
1 | O=C(CN1C(=O)C(c2ccccc2)=NC12CCCCC2)N1CCN(c2ccccc2)CC1 | inconclusive: 56.2 µM [inhibitor, partial curve, poor fit]
2 | COc1ccc(-c2cc(N3CCCN(C(=O)c4ccc(C(C)(C)C)cc4)CC3)n[nH]2)cc1 | inconclusive: 39.8 µM [inhibitor, partial curve, poor fit]
3 | CS(=O)(=O)N1CCCN(Cc2cn[nH]c2-c2ccccc2)CCNC(=O)CC1c1ccccc1 (stereo unspecified) | inactive
4 | CCOc1ccc(-c2cc3c(=O)n(CCNC(=O)c4ccc(C)cc4)ccn3n2)cc1 | inactive
5 | CCC1=C(C(=O)OC)C(c2cccc(OC)c2OC)N2C(CC(=O)NCC3CC3)=CSC2=N1 (stereo unspecified) | inactive
6 | COc1ccc(-c2noc(CC3CCN(C(=O)Cc4ccccc4Cl)CC3)n2)cc1 | inconclusive: 44.7 µM [inhibitor, partial curve, poor fit]
7 | N#Cc1ccc(CN2CCC(N3Cc4cccn4C3=O)CC2)cc1 | inactive
8 | O=C(NC1C[C@H]2CC[C@@H](C1)N2C(=O)c1ccc(OC(F)(F)F)cc1)c1ccncc1 (stereo partly specified) | inactive
9 | Cc1noc2c(N3CC[S+](=O)([O-])CC3)cc(-c3cccs3)nc12 | inconclusive: 39.8 µM [inhibitor, partial curve]
10 | Cc1ccccc1N1Cc2c(NC3CCCCCC3)ncnc2N(C)CC1=O | inconclusive: 44.7 µM [inhibitor, partial curve, poor fit]
11 | Cn1c2c(c3cc(F)ccc31)CN(C(=O)Nc1ccc(Cl)cc1Cl)CC2 | inconclusive: 44.7 µM [inhibitor, partial curve, poor fit]
12 | CCOc1ccc(CN2CC(Oc3ccccc3C(=O)NC3CC3)C2)cc1 | inactive
13 | Cc1ccc(-c2ccc3nnc(CNC(=O)Cc4cccc(C)c4)n3n2)cc1 | inactive
14 | COc1ccc(CN2C=C(C(=O)OCc3noc(C4CCCCC4)n3)C(C)=NS2(=O)=O)cc1 | inconclusive: 12.6 µM [inhibitor, full curve]
15 | CCN1CCN(C(=O)c2cc(-c3cc(Cl)cc(Cl)c3)nc3c2cnn3C)CC1 | inactive
16 | COc1cccc(N2C(=O)NC(=NC3CCCC3)C23CCN(Cc2ccccc2)C3)c1 (stereo unspecified) | inconclusive: 56.2 µM [inhibitor, partial curve, poor fit]
17 | CN(C)C(=O)c1ccc(-c2ncc3c(n2)OCCN(CC2CC2)C3=O)cc1 | inconclusive: 89.1 µM [inhibitor, partial curve]
18 | C#CCNC(=O)C1CCN(c2nccc(Nc3ccc(OC)cc3)n2)CC1 | inconclusive: 50.1 µM [inhibitor, partial curve, poor fit]
19 | CN1CCOc2c(C(=O)NCc3cccnc3)cc(-c3ccc(CO)cc3)cc21 | inconclusive: 79.4 µM [inhibitor, partial curve]
20 | O=C(Cc1noc2ccccc12)N[C@@H]1COCC[C@@H]1OCc1ccccn1 | inactive
21 | O=C(Cn1ccnc1)N1CCc2c(n(CCOc3ccccc3)n(-c3ccccc3)c2=O)C1 | inconclusive: 70.8 µM [inhibitor, single point]

Row | Compound | Potency
22 | O=C1c2cc(N3CCOCC3)nc(-c3ccc(CO)cc3)c2CN1Cc1ccccc1 | inconclusive: 22.4 µM [inhibitor, full curve, poor fit]
23 | CNC(=O)C1CCCCN1Cc1ccc(-c2ccsc2)cc1 (stereo unspecified) | inconclusive: 89.1 µM [inhibitor, partial curve]
24 | CC(NC(=O)c1ccc(OC2CCN(S(=O)(=O)N(C)C)CC2)cc1)c1ccc(F)cc1 (stereo unspecified) | inconclusive: 50.1 µM [inhibitor, partial curve, poor fit]
25 | Cc1ccc(NC(=O)c2ccc(Cn3ccn4nc5c(c4c3=O)CCCC5)cc2)cc1C | inactive
26 | CN(C)c1ccc(CN2CCC3(CC(Cc4ccccc4)=NO3)C2)cc1 (stereo unspecified) | inconclusive: 50.1 µM [inhibitor, partial curve, poor fit]
27 | CN1CC(=O)N(C2CCC2)Cc2c1ncnc2N1CCC(Cc2ccccc2)CC1 | active: 44.7 µM
28 | COc1ccccc1CNC(=O)C1(CCO)CCN(Cc2ccccc2)C1 (stereo unspecified) | inconclusive: 50.1 µM [inhibitor, partial curve, poor fit]
29 | CCC(c1cccs1)N1C(=O)[C@H]2CN(C(=O)NC)C[C@H]2C1=O (stereo partly specified) | inactive
30 | O=C(O)c1cnc(-c2ccc(F)cc2)nc1-c1ccncc1 | inconclusive: 70.8 µM [inhibitor, single point]
31 | CCCS(=O)(=O)N1CCC(Oc2ccc(-c3noc(C(C)C)n3)cc2)C1 (stereo unspecified) | inconclusive: 44.7 µM [inhibitor, partial curve, poor fit]
32 | COc1ncccc1-c1ccc2ncn(Cc3ccccn3)c(=O)c2n1 | inconclusive: 28.2 µM [inhibitor, partial curve, poor fit]
33 | O=C(c1ccc(Cl)nc1)N1CCC(C(=O)N2CCC(c3nc4ccncc4[nH]3)C2)CC1 (stereo unspecified) | inactive
34 | c1cc(-c2cc(-c3ccncc3)c3cncn3c2)cc(N2CCOCC2)c1 | active: 22.4 µM
35 | O=C(NC1CCCC1)N1CCN(C(=O)c2nc3cccnc3n(C3CC3)c2=O)CC1 | inconclusive: 79.4 µM [inhibitor, partial curve, poor fit]
36 | CCn1cc(-c2ccc(Cl)cc2)cc1C(=O)NCCCN1CCOCC1 | inconclusive: 44.7 µM [inhibitor, partial curve, poor fit]
37 | CN1CCN(CCCNc2nccc(-c3ccccn3)n2)CC1 | inactive
38 | Cc1c(CN2CCN(c3ncc(F)cn3)CC2)[nH]c2ccc(F)cc12 | inconclusive: 56.2 µM [inhibitor, partial curve, poor fit]
39 | C#CCNC(=O)C1CCCN(Cc2cccc(-c3ccc(F)cc3F)c2)C1 (stereo unspecified) | inconclusive: 50.1 µM [inhibitor, partial curve, poor fit]
40 | Cc1nn(-c2ccccc2)c2c1C(C)N(C1CCN(C(=O)c3ccccc3)C1)C2=O (stereo unspecified) | inconclusive: 35.5 µM [inhibitor, partial curve, poor fit]
41 | CC1(C)C(=O)N(Cc2ccccc2F)[C@H]2CN(Cc3cccc(OC(F)(F)F)c3)C[C@H]2[S+]1(=O)[O-] | inconclusive: 50.1 µM [inhibitor, partial curve, poor fit]
